{"source": "PubChem BioAssay AID504333", "about": "(National Center for Advancing Translational Sciences (NCATS), 2011)", "note": "Out of some 360,000 compounds screened, about 16,000 (4.4%) were called active. The inconclusive results got no clear call from the source; some entries with a clear call stand among them for comparison. Calls come from the whole dose curve; as a rule, active = well fitted inhibition curve with a large enough effect; inconclusive = small, poorly fitted or top-dose-only effect; inactive = no such curve, though single readings can be large or run the other way. Where the call is inconclusive, the potency comes from a doubtful curve fit. More than one record can exist for a structure, and the calls need not agree.", "data": [{"target": "Bromodomain adjacent to zinc finger domain protein 2B (Homo sapiens) (UniProt Q9UIF8)", "sequence (Q9UIF8 whole entry, looked up, the tested form may be a part)": "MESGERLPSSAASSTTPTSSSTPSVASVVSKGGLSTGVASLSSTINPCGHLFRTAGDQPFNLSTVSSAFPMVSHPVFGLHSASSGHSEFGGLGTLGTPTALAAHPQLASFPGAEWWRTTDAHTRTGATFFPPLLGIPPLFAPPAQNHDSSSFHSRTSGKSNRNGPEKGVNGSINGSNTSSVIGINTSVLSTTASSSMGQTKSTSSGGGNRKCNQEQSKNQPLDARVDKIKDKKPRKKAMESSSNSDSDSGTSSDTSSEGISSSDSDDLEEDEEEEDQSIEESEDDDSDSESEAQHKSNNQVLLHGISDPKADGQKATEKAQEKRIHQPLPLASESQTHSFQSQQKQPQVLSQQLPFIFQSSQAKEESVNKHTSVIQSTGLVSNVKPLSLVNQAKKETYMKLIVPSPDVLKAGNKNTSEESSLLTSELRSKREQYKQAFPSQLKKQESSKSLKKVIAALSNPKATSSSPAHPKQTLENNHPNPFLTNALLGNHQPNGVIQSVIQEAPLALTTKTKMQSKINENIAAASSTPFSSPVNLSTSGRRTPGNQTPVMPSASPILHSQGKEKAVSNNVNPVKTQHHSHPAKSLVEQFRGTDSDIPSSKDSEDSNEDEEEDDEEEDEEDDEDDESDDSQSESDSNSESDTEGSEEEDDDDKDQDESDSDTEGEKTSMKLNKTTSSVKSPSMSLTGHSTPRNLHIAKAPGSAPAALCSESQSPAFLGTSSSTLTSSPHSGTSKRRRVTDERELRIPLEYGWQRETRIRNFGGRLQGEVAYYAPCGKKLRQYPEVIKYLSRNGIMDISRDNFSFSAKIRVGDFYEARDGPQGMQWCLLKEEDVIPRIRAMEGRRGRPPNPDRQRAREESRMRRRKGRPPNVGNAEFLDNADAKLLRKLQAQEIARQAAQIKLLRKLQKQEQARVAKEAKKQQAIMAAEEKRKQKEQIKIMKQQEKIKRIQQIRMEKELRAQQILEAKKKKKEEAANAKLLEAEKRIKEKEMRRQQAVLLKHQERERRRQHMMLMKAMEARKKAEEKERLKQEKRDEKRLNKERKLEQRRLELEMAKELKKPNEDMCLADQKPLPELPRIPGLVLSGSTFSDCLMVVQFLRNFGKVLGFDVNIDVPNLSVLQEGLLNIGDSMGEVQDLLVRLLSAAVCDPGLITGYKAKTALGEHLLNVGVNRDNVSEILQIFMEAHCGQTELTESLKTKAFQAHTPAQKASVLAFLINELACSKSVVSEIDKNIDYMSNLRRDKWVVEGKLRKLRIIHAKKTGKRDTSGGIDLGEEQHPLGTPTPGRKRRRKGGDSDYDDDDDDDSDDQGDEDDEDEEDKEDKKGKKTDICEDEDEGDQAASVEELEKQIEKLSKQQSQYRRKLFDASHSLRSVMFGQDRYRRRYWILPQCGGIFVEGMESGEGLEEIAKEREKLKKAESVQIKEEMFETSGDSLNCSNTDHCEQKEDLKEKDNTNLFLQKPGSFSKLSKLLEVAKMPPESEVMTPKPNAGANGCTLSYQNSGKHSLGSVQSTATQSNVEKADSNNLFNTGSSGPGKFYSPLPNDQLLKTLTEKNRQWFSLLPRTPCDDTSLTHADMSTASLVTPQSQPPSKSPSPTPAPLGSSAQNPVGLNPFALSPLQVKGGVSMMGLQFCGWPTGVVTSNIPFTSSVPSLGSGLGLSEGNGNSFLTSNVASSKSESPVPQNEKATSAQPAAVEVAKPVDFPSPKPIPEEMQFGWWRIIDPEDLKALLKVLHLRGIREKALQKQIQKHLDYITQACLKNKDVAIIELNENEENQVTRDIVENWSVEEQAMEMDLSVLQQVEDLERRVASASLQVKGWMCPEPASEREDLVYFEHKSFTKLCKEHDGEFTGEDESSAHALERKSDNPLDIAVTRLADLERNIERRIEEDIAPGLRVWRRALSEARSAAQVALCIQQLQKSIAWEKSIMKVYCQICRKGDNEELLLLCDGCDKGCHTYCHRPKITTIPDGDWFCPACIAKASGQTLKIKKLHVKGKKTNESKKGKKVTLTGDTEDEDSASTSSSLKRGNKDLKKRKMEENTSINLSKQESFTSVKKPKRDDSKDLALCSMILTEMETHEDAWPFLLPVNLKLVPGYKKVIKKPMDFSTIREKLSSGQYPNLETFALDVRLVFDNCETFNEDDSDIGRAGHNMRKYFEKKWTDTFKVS", "test": "qHTS Assay for Inhibitors of BAZ2B; note: nearly all actives have a fitted effect of over 60% in size; note: potency is the fitted concentration of half-maximal effect; tags give direction and shape of the fitted curve; for activity change, negative = inhibition: % is set by controls: 0 for no effect and ±100 for the full control effect", "conditions": "AlphaScreen BAZ2B-H3K14Ac peptide displacement; activity change, negative = inhibition: at 114 µM (top of the series) unless noted", "how_it_was_run": "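Compounds, titrated to a top concentration of 110 uM, were incubated 30 min at room temperature with preformed BAZ2B/acetyl-K14 H3 peptide complex (50 nM each). Proximity signal was measured by AlphaScreen after 20 min with beads.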", "values": [{"compound": "COc1ccccc1OCc1ccc(C(=O)NCC2CCCO2)cc1", "note": "(centres undefined)", "activity change, negative = inhibition": "inactive: 7.08%"}, {"compound": "CCOC(=O)C1=C(CN2CCc3ccccc32)NC(=O)NC1c1cccc([N+](=O)[O-])c1", "note": "(centres undefined)", "Potency": "inconclusive: 63.1 µM [inhibitor, single point]"}, {"compound": "COC(=O)c1sc2ncccc2c1-n1c(C)ccc1C", "Potency": "inconclusive: 35.5 µM [inhibitor, full curve, poor fit]"}, {"compound": "O=C1c2cccnc2C(=O)N1CNc1ccc(Cl)cc1", "Potency": "active: 56.2 µM"}, {"compound": "COC(=O)C1=C(O)/C(=C\\c2ccc(CNC(=O)C(=O)Nc3ccc(C)cc3)o2)N=C1C", "Potency": "active: 31.6 µM"}, {"compound": "CCOC(=O)c1[nH]cnc1C(=O)NCc1ccccc1", "Potency": "inconclusive: 79.4 µM [inhibitor, partial curve]"}, {"compound": "Cc1cc2c(cc1S(=O)(=O)N1CCN(c3cccc(C)c3C)CC1)OCC(=O)N2", "activity change, negative = inhibition": "inactive: 15.4%"}, {"compound": "CC(C)C(=O)N1c2nc(-c3ccco3)nn2C2(CCCCC2)[C@@H]2CCCC[C@@H]21", "Potency": "inconclusive: 79.4 µM [inhibitor, single point]"}, {"compound": "O=C(c1ccco1)N1N=C(c2cccs2)CC1c1cc([N+](=O)[O-])ccc1O", "note": "(centres undefined)", "Potency": "inconclusive: 22.4 µM [inhibitor, partial curve]"}, {"compound": "Cc1oc2c(cc(NS(=O)(=O)c3ccc(C(C)C)cc3)c3ccccc32)c1C(=O)O", "Potency": "active: 50.1 µM"}, {"compound": "c1ccc(-c2nc(CSc3nnnn3-c3ccccc3)cs2)cc1", "activity change, negative = inhibition": "inactive: -0.734%"}, {"compound": "Cc1cccc(Oc2nc(CN3CCOCC3)nc3sc4c(c23)CCCC4)c1", "Potency": "inconclusive: 44.7 µM [inhibitor, partial curve]"}, {"compound": "CCN(CC)CCN1C(=O)c2oc3ccc(F)cc3c(=O)c2C1c1ccncc1", "note": "(centres undefined)", "Potency": "inconclusive: 89.1 µM [inhibitor, single point]"}, {"compound": "CC1CC(C)CN(S(=O)(=O)N2CCCC(C(=O)NC3CCCCC3)C2)C1", "note": "(centres undefined)", "activity change, negative = inhibition": "inactive: -17%"}, {"compound": "Cc1cc(SCC(=O)c2cc(C)n(C)c2C)nc2ccccc12", "Potency": "inconclusive: 79.4 µM [inhibitor, single point]"}, {"compound": "Cc1cc(C)c(S(=O)(=O)c2ccccc2C)c(OCCN(C)C)n1", "activity change, negative = inhibition": "inactive: -0.587%"}, {"compound": "CN(C)CCCNS(=O)(=O)c1ccc(NC2CCCCCC2)c([N+](=O)[O-])c1", "Potency": "inconclusive: 70.8 µM [inhibitor, single point]"}, {"compound": "CCOc1ccc(NC(=O)c2cccc3c2C(=O)N(CC2CCCO2)C3)cc1", "note": "(centres undefined)", "Potency": "inconclusive: 89.1 µM [inhibitor, single point]"}, {"compound": "CC(=O)N1CCC(=NNc2ccnc3cc(Cl)ccc23)CC1", "Potency": "inconclusive: 50.1 µM [inhibitor, partial curve]"}, {"compound": "CCC(C)[C@H]1COCCS(=O)(=O)N1Cc1ccc(Br)cc1", "note": "(some centres undefined)", "Potency": "inconclusive: 31.6 µM [inhibitor, single point]"}, {"compound": "Cc1nc2ccccn2c1C(=O)NN", "Potency": "inconclusive: 89.1 µM [inhibitor, single point]"}, {"compound": "O=C(O)COc1ccccc1/C=C1\\SC(=S)N(/N=C/c2ccccc2O)C1=O", "Potency": "active: 56.2 µM"}, {"compound": "Cc1ccc(CNC(=O)CC(C)CC2=NS(=O)(=O)c3ccccc3N2)cc1", "note": "(centres undefined)", "activity change, negative = inhibition": "inactive: 0.494%"}, {"compound": "Cc1ccccc1SCC(=O)Nc1cc(S(=O)(=O)N2CCOCC2)ccc1N1CCOCC1", "activity change, negative = inhibition": "inactive: -9.31%"}, {"compound": "COc1ccc(NC(=O)c2c(NCc3ccc(N(C)C)cc3)sc3c2CCC3)cc1", "Potency": "active: 31.6 µM"}, {"compound": "COc1ccc(NS(=O)(=O)c2cc(NC(=O)c3ccc(F)cc3)ccc2OC)cc1", "Potency": "inconclusive: 89.1 µM [inhibitor, single point]"}, {"compound": "CCn1c(SCC(=O)NCc2cccs2)nnc1-c1cccs1", "activity change, negative = inhibition": "inactive: -8.52%"}, {"compound": "CCOc1cc(C(=O)Nc2cc3c(cc2N2CCCC2)n(C)c(=O)n3C)cc(OCC)c1OCC", "Potency": "active: 89.1 µM"}, {"compound": "CC1CCN(S(=O)(=O)c2nnc(NC(=O)c3ccc(C(C)C)cc3)s2)CC1", "Potency": "inconclusive: 12.6 µM [inhibitor, partial curve]"}, {"compound": "COc1ccc(N2CCN(C(=O)CCc3ccccc3OC)CC2)cc1", "Potency": "inconclusive: 39.8 µM [inhibitor, full curve]"}, {"compound": "CCOC(=O)c1cccc(NC(=O)c2cc3c(=O)n(C)c4ccccc4c3n2C)c1", "Potency": "inconclusive: 31.6 µM [inhibitor, full curve]"}, {"compound": "Cc1nnc2ccc(N3CCCCC3)nn12", "activity change, negative = inhibition": "inactive: 0.601%"}, {"compound": "Cc1cc(C)cc(NC(=O)c2ccc3c(c2)nnn3C2CCCC2)c1", "activity change, negative = inhibition": "inactive: 2.9%"}, {"compound": "Cc1ccccc1C(=O)NC(=S)Nc1ccc(N2CCOCC2)cc1", "Potency": "inconclusive: 50.1 µM [inhibitor, partial curve]"}, {"compound": "Cc1cc(=O)n2[nH]c(-c3ccsc3-n3c(C)ccc3C)cc2n1", "Potency": "active: 44.7 µM"}, {"compound": "COc1ccc(N2CCN(CC(=O)c3ccc(Cl)cc3)CC2)cc1", "Potency": "inconclusive: 79.4 µM [inhibitor, single point]"}, {"compound": "O=c1c2c3nc4ccccc4nc3n(/N=C/c3ccco3)c2ncn1CCC1=CCCCC1", "Potency": "inconclusive: 89.1 µM [inhibitor, single point]"}, {"compound": "Cc1ccc(N/N=C2\\CCS(=O)(=O)c3sccc32)cc1", "Potency": "inconclusive: 79.4 µM [inhibitor, partial curve]"}, {"compound": "N#Cc1nc(COc2ccccc2Cl)oc1N1CCCCCC1", "Potency": "inconclusive: 20 µM [inhibitor, full curve]"}, {"compound": "CC(C)N(CCNCC(O)COc1ccc(C(C)(C)c2ccccc2)cc1)C(C)C", "note": "(centres undefined)", "Potency": "active: 50.1 µM"}, {"compound": "COc1cc2c(C#N)c(N3CCc4ccccc4C3)nc(N)c2c(N)n1", "Potency": "inconclusive: 56.2 µM [inhibitor, partial curve]"}, {"compound": "COc1ccc2c(CNCc3cccs3)c(C(=O)O)n(Cc3ccc(C)cc3)c2c1", "Potency": "inconclusive: 70.8 µM [inhibitor, single point]"}, {"compound": "Cc1cccc(-n2c(=O)c3c(c4cc(C)ccc4n3C)n(CC(=O)NCC3CCCO3)c2=O)c1", "note": "(centres undefined)", "activity change, negative = inhibition": "inactive: -3.7%"}, {"compound": "Cc1oc(-c2cccc(Cl)c2)nc1CS(=O)(=O)CC(=O)NCc1ccccc1Cl", "Potency": "inconclusive: 89.1 µM [inhibitor, single point]"}, {"compound": "CCC(C)[C@H](N)c1cn([C@@H](Cc2cc3ccccc3[nH]2)C(=O)N2CCNCC2)nn1", "note": "(some centres undefined)", "Potency": "inconclusive: 79.4 µM [inhibitor, single point]"}, {"compound": "COc1ccc(Cn2c(SCc3ccccc3C)nc3cc(OC)c(OC)cc3c2=N)cc1", "Potency": "inconclusive: 79.4 µM [inhibitor, single point]"}, {"compound": "CCn1c(C(=O)NCc2ccc(OC(C)C)cc2)cc2oc3ccccc3c21", "activity change, negative = inhibition": "inactive: -17.6%"}, {"compound": "CSc1cccc(NC(=O)COC(=O)c2ccccn2)c1", "Potency": "inconclusive: 89.1 µM [inhibitor, single point]"}, {"compound": "CN1C=CC=C/C1=C1\\SC(=S)N(C2CCCCC2)C1=O", "Potency": "active: 39.8 µM"}, {"compound": "Cn1c(N2CCC(C(N)=O)CC2)nc2c1c(=O)n(Cc1cccc(Br)c1)c(=O)n2C", "Potency": "inconclusive: 79.4 µM [inhibitor, single point]"}, {"compound": "CSc1ncc(CN2CCc3c([nH]c4ccccc34)C2c2cccc(O)c2)cn1", "note": "(centres undefined)", "Potency": "active: 39.8 µM"}, {"compound": "Cc1ccc(NC(=O)c2cccnc2)cc1S(=O)(=O)N(C)C", "activity change, negative = inhibition": "inactive: -9.36%"}, {"compound": "CCCNC(=O)COC(=O)c1ccc(N2CCCC2)c([N+](=O)[O-])c1", "Potency": "inconclusive: 70.8 µM [inhibitor, single point]"}, {"compound": "Cn1c(C(=O)c2ccncc2)cc2ccccc21", "activity change, negative = inhibition": "inactive: -2.59%"}, {"compound": "Cn1nccc1NC(=O)c1nccnc1C(=O)O", "Potency": "inconclusive: 79.4 µM [inhibitor, single point]"}, {"compound": "C=CCNC(=O)COC(=O)c1cccnc1Nc1ccccc1F", "activity change, negative = inhibition": "inactive: -18%"}, {"compound": "COc1ccc2c(c1[N+](=O)[O-])CCC/C2=N/OC(=O)c1ccccc1SC", "Potency": "inconclusive: 79.4 µM [inhibitor, single point]"}, {"compound": "Cc1cccc2sc(NNC(=O)c3cc(=O)c4ccccc4o3)nc12", "Potency": "active: 44.7 µM"}, {"compound": "S=C(NCCc1ccccc1)N1CCn2cccc2C1c1cccnc1", "note": "(centres undefined)", "Potency": "inconclusive: 70.8 µM [inhibitor, partial curve]"}, {"compound": "CC(NCC(O)COc1ccc2ccccc2c1)c1ccccc1", "note": "(centres undefined)", "Potency": "active: 50.1 µM"}, {"compound": "COc1cc(C)c(-c2cc(C(=O)O)c(C)o2)cc1C(C)C", "Potency": "inconclusive: 56.2 µM [inhibitor, partial curve]"}, {"compound": "O=C(c1ccccc1Cl)N(Cc1ccc(Br)cc1)N1C(=O)CCCC1=O", "Potency": "inconclusive: 89.1 µM [inhibitor, single point]"}, {"compound": "COc1ccc(C(=O)OCC(=O)N2CCCCCC2)cc1S(=O)(=O)N1CCOCC1", "activity change, negative = inhibition": "inactive: 7.68%"}, {"compound": "N#Cc1ccc(C(=O)NCc2ccc3c(c2)CCN3C(=O)c2ccc(F)cc2)cc1", "activity change, negative = inhibition": "inactive: 1.69%"}, {"compound": "Cc1nc(NCc2ccco2)c2oc3ccccc3c2n1", "Potency": "inconclusive: 89.1 µM [inhibitor, single point]"}, {"compound": "COc1cc(/C=C2\\SC(=Nc3ccccc3)NC2=O)cc(Cl)c1O", "activity change, negative = inhibition": "inactive: -32.4%"}, {"compound": "CCOC(=O)N1CCc2c(sc3ncn(C)c(=O)c23)C1", "Potency": "inconclusive: 100 µM [inhibitor, single point]"}, {"compound": "COc1ccc(Nc2nnc(SCC(=O)c3cc4ccccc4o3)s2)cc1", "Potency": "inconclusive: 89.1 µM [inhibitor, single point]"}, {"compound": "O=C(CSc1nnc(-c2ccccn2)n1Cc1ccco1)c1ccc(Cl)cc1", "Potency": "inconclusive: 50.1 µM [inhibitor, partial curve]"}, {"compound": "CC(C(=O)O)n1c2ccccc2c2cn[nH]c(=O)c21", "note": "(centres undefined)", "activity change, negative = inhibition": "inactive: -5.39%"}, {"compound": "Nc1ccc2c(c1Cl)C(=O)c1ccc(N)c(Cl)c1C2=O", "Potency": "active: 56.2 µM"}, {"compound": "CN(CC(=O)Nc1ccccc1C(=O)NC1CC1)Cc1ccco1", "Potency": "inconclusive: 79.4 µM [inhibitor, single point]"}, {"compound": "CC(C)N1C(=O)/C(=C\\c2nc3ccccc3c(=O)n2-c2ccccc2)c2ccccc21", "Potency": "active: 10 µM"}, {"compound": "Cc1sc(NC(=O)CN(Cc2ccccc2)C(=O)C2CC2)c(C(N)=O)c1C", "activity change, negative = inhibition": "inactive: 0.829%"}]}]}
